This passage reports activation results from PubChem BioAssay AID1346428 (National Center for Advancing Translational Sciences (NCATS), 2018).

Structures are written as SMILES. The campaign covered roughly 48,000 compounds. About 1,200 (2.5%) were called active. About 2% were inconclusive and are not listed.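 Rule for the calls: active = activation of at least 60% and not above a set upper limit (about 1 call in 100 departs from these limits); inconclusive = activation of 40% to 60%, or above that upper limit; inactive = activation under 40%.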 Some of the results follow.

This test deals with Probable G-protein coupled receptor 32 (Homo sapiens) (UniProt O75388). In words: qHTS for Agonists of Human Resolvin D1 Receptor DRV1. The following applies: CHO-K1 GPR32 beta-arrestin PathHunter luminescence, 90 min; at 76.9 µM; active compounds read high; zero percent set by DMSO-only wells. An outline of the steps: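 Using DMSO wells as EC0, agonist-induced signal was taken as chemiluminescence from beta-Gal reconstituted upon beta-arrestin recruitment to GPR32 in CHO-K1 cells after 90 min compound treatment.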
Sequence of UniProt O75388 (O75388 whole entry, looked up): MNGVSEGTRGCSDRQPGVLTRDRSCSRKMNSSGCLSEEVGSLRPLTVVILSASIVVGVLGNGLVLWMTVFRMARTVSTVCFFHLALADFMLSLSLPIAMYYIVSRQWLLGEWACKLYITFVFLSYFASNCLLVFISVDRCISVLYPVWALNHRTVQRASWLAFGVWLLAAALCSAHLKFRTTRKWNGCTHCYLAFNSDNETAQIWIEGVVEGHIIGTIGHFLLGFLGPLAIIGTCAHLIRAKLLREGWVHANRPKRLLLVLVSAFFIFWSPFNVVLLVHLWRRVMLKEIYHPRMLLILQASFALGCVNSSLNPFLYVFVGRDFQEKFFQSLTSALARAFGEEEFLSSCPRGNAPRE
With `Cc1ccc(-c2ccc(CCC(=O)O)n2-c2ccc(C(N)=O)cc2)cc1`, the activation is inactive: -14.7%.

In the case of `CCOc1ccc(C(=O)Nc2ccc3nc(SCC(=O)N4CCc5ccccc54)sc3c2)cc1`, the activation is inactive: -0.151%.

Take `CC1=C(c2ccc(C)cc2)S(=O)(=O)N(Cc2ccc(C(=O)Nc3ccc(C)c(F)c3)cc2)C1=O`: the activation was inactive: -6.58%.

Regarding `NC(=O)CSc1ncc2c(n1)-c1ccccc1N(Cc1ccc(F)cc1)S2(=O)=O`, the activation is inactive: 17.3%.

As to `O=C(NCCCN1CCCCCC1)c1ccc2c(c1)sc1nc(-c3ccccc3)cn12`, the activation is inactive: -4.72%.

Turning to `COc1ccc(-c2nc(CS(=O)(=O)CC(=O)NCc3ccccc3Br)c(C)o2)cc1`, the activation was inactive: -21.5%.

Take `Cc1ccc(CNC(=O)CCCn2c(=O)c3ccccc3n(CC(=O)Nc3ccc(C)cc3)c2=O)cc1`: the activation was inactive: -3.32%.

As for `CCOc1ccc(NC(=O)CCc2c(C)nn(-c3ccc(N4CCCC4)nn3)c2C)cc1`, the activation was inactive: -2.78%.

`CCC(C(=O)Nc1ccc(C)c(C)c1)n1c(=O)c(C(F)(F)F)nc2ccccc21` (centres undefined): the activation was inactive: -22.2%.

On to `Cc1nc2cc(-c3ccccc3)nn2c(C)c1CCC(=O)Nc1ccc(F)cc1F`, for which the activation was inactive: 27.2%.

Consider `Cc1ccc(CNC(=O)CS(=O)(=O)c2cccc3nsnc23)cc1`, for which the activation is inactive: 2.22%.

Consider `CCOC(=O)c1c(NC(=O)COc2ccc(Cl)cc2C)sc2c1CCCCC2`, for which the activation is inactive: -0.0005%.

Take `COc1cccc(NC(=O)Cn2c(=O)n(CCC(=O)NCCc3ccc(Cl)cc3)c(=O)c3ccccc32)c1`: the activation is inactive: -3.15%.

On to `COc1ccc(CCNC(=O)Cc2c(C)c3cc4c(C(C)(C)C)coc4c(C)c3oc2=O)cc1`, for which the activation is inactive: -6.45%.

As to `COc1ccc(NC(=O)CC2C(=O)N(c3ccc(OC)cc3)C(=O)N2CCC2=CCCCC2)cc1` (centres undefined), the activation was inactive: -29.6%.

Turning to `Cc1ccc(C)c(Nc2cc(C(=O)NC3CCCC3)c3ccccc3n2)c1`, the activation is inactive: 0.529%.

Consider `COc1cc(-c2noc(-c3ccc(NCC4CCCO4)c([N+](=O)[O-])c3)n2)cc(OC)c1OC` (centres undefined), for which the activation was inactive: -31.6%.

With `Cc1ccc(CNC(=O)c2cc3c(=O)n(Cc4ccco4)ccc3nc2C)cc1`, the activation is inactive: -15%.

Regarding `COc1cc(NC(=O)CSc2nc3ncccc3o2)cc(OC)c1`, the activation was inactive: -8.43%.

`Cl/C(=C\n1cncn1)c1ccc(Cl)cc1Cl`: the activation is inactive: 16.2%.

For the compound `CCOc1ccc(CCNC(=O)CN2C(=O)COc3ccc(S(=O)(=O)N4CCCC4)cc32)cc1`, the activation was inactive: -20.4%.

Take `Cc1ccc(NC(=O)CCC(=O)N2Cc3ccccc3Oc3ncccc32)c(C)c1`: the activation was inactive: -15.2%.

Take `Cc1ccc(C(C)C)c(OCC(O)CN2CCN(c3ccccc3F)CC2)c1` (centres undefined): the activation was inactive: -15.2%.

For `Cc1cccc(NC(=O)CSc2nc(-c3ccccc3)cc(=O)[nH]2)c1C`, the activation was inactive: 12.5%.

`COc1ccc(Cl)cc1S(=O)(=O)NCc1ccc2c(c1)CCN2C(=O)c1cccc(C)c1`: the activation is inactive: -15.2%.

As to `COc1ccc(-n2nnnc2C2CCN(S(=O)(=O)c3ccc(NC(C)=O)cc3)CC2)cc1`, the activation was inactive: 27.4%.

For `Cc1cccc(-c2nc(C)c(CCNC(=O)C(=O)Nc3ccccc3C#N)s2)c1`, the activation was inactive: 45.5%.

Take `CCn1c(=N)c(C(=O)NCc2ccccc2)cc2c(=O)n3cccc(C)c3nc21`: the activation was inactive: 15.6%.

Consider `Cc1ccc(Cn2ccnc2SCC(=O)NCc2ccccc2Cl)cc1`, for which the activation was inactive: -11.3%.

For the compound `CCn1c(C(=O)N2CCC(C(=O)NCCc3ccc(C)cc3)CC2)cc2sccc21`, the activation is inactive: -9.5%.

Take `N#Cc1c(C(F)(F)F)cc(-c2ccc(F)cc2)nc1SCC(=O)Nc1ccccc1`: the activation was inactive: -1.72%.

Regarding `Cc1ccccc1NC(=O)CSc1nc2ccccc2c2nc(CCn3cncc3C)nn12`, the activation is inactive: -16.7%.

Consider `COc1ccc(NC(=O)CCc2c(C)nn(-c3ccc(N4CCCCC4)nn3)c2C)cc1Cl`, for which the activation is inactive: -10.1%.

For `COCCCNC(=O)c1ccc(-c2nc(CS(=O)(=O)c3ccc(C)cc3)c(C)o2)cc1`, the activation was inactive: 7.32%.

Regarding `Cc1oc(-c2ccc(C(=O)NCc3cccc(F)c3)cc2)nc1COc1ccccc1`, the activation is inactive: -9.78%.

With `CCOC(=O)c1ccc(N2C(=O)c3n[nH]c(-c4ccco4)c3C2c2cccc(OC)c2)cc1` (centres undefined), the activation is inactive: -12.9%.

As to `COC(=O)c1ccc2c(=O)n(CCCCCC(=O)NCCc3ccc(Cl)cc3)c(=O)[nH]c2c1`, the activation is inactive: -3.07%.

Turning to `COc1ccccc1C(=O)Nc1cccc(C(=O)OCc2cc(=O)n3ccsc3n2)c1`, the activation was inactive: -6.25%.

For the compound `Cc1ccc(S(=O)(=O)N(CC(=O)Nc2ccc(Cl)cc2Cl)c2ccccc2C)cc1`, the activation was inactive: -10.2%.

On to `CCOC(=O)C1CCCN(C(=O)c2ccc3c(c2)sc2nc(-c4ccc(CC)cc4)cn23)C1` (centres undefined), for which the activation is inactive: 3.73%.

Take `Cc1ccc(CNC(=O)C(C)n2nc(C)n3c(cc4sccc43)c2=O)cc1` (centres undefined): the activation is inactive: -4%.

Regarding `COc1cccc2c1cc1c(=O)n(CC(=O)N3CCN(c4ccccc4)CC3)nc(C)n12`, the activation is inactive: -11.1%.

For `O=C(CCS(=O)(=O)c1ccc(Br)cc1)Nc1ccc(F)cc1F`, the activation was inactive: -5.29%.

For `CCc1ccc(CNc2ccc3c(c2)ncn3C(C)(C)C)cc1`, the activation is inactive: -11.2%.

For the compound `Cc1ccc(-c2nc3ncccn3c2Nc2ccc3c(c2)OCCO3)cc1`, the activation is inactive: -4.23%.

Consider `Cc1cccc(NS(=O)(=O)c2ccc3c(c2)CC(C)N3C(=O)C2CCC2)c1C` (centres undefined), for which the activation is inactive: 21.2%.

Turning to `CCc1nc2ccc(C(=O)NCc3cc(OC)ccc3OC)cc2nc1CC`, the activation is inactive: -25.7%.

As for `COC(=O)c1nc(Cl)c(Cl)nc1N`, the activation was inactive: 47.3%.

In the case of `CCOc1ccc(N2CC(c3nc4ccccc4n3CCOc3ccccc3OC)CC2=O)cc1` (centres undefined), the activation is inactive: -20.5%.

For `COc1ccc(Cn2c(=O)n(Cc3ccco3)c(=O)c3oc4ccccc4c32)cc1`, the activation is inactive: -16.6%.

`Cc1cccc2sc(N(CCN(C)C)C(=O)c3ccc4c(c3)OCCO4)nc12`: the activation is inactive: -20.1%.

Take `CCOc1ccc(CCNC(=O)CS(=O)(=O)Cc2nc(-c3ccc(OC)cc3)oc2C)cc1`: the activation was inactive: -4.09%.

Consider `CCN(CC)c1ccc(NC(=O)c2cnn(-c3ccccc3)c2-n2cccc2)c(C)c1`, for which the activation was inactive: -3.5%.

For `CC(=O)N1CCc2cc(S(=O)(=O)CCC(=O)Nc3ccc(C)cc3Br)ccc21`, the activation is inactive: 15%.

In the case of `Cc1ccc(Cn2c(C)c3cnn(CC(=O)NCc4ccccc4)c(=O)c3c2C)cc1`, the activation is inactive: -8.21%.

For `COc1ccc(-c2nc(CSCC(=O)N3CCN(c4cc(Cl)ccc4C)CC3)c(C)o2)cc1`, the activation is inactive: -13.9%.

`Cc1cc(OC(C)C(=O)Nc2cccc(-c3nc4ccccc4o3)c2)cc(C)c1Cl` (centres undefined): the activation is inactive: -6.97%.

Take `CC(CCc1ccccc1)NC(=O)Cn1ncc2c3ccccc3n(Cc3ccccc3F)c2c1=O` (centres undefined): the activation was inactive: -13.6%.

For the compound `CCc1nn(CC(=O)N2CCN(c3ccc(OC)cc3)CC2)c(=O)c2cc3sccc3n12`, the activation was inactive: -18.3%.

Turning to `CC[C@@]1(c2ccccc2)NC(=O)N(C)C1=O`, the activation was inactive: -3.38%.

As to `O=C(CCn1c(=O)c2cccn2c2cccnc21)N1CCN(c2ccccc2)CC1`, the activation is inactive: -14.7%.

In the case of `Cn1c(=O)oc2cc(S(=O)(=O)CCC(=O)N3CCN(c4ccccc4F)CC3)ccc21`, the activation is inactive: -3.57%.

For `COc1ccc(-c2cnc(C)o2)cc1S(=O)(=O)Nc1ccc(NC(C)=O)cc1`, the activation was inactive: 3.99%.

In the case of `CCC(=O)C1=C(c2ccc(F)cc2)N(C(=O)CC)n2c(nnc2-c2ccc(OC)cc2)S1`, the activation was inactive: -27%.

Regarding `O=C(CSc1nccn1-c1cccc(Cl)c1)Nc1ccc2c(c1)OCO2`, the activation is inactive: -3.65%.

In the case of `CCN(C(=O)C1CCN(S(=O)(=O)c2cc(Br)cc3c2N(C(C)=O)CC3)CC1)c1cccc(C)c1`, the activation is inactive: 9.02%.

Turning to `CCC(=O)NNc1ncnc2c1cnn2-c1ccc(C)c(Cl)c1`, the activation is inactive: 9.79%.

For `Cc1ccc(-c2cc(C(=O)Oc3ccc(C#N)cc3)no2)cc1`, the activation was inactive: 30.5%.

`CCn1c(SCC(=O)Nc2ccccc2C(=O)OC)nc2ccsc2c1=O`: the activation was inactive: -7.15%.

For `CCc1ccc(CSc2nc(-c3ccccc3F)nc3c2Cc2c(CO)cnc(C)c2O3)cc1`, the activation is inactive: 22%.

On to `CCN(Cc1ccccc1)C(=O)Cn1c(=O)n(-c2ccccc2)c(=O)c2c1c1cc(C)ccc1n2C`, for which the activation was inactive: 11.8%.

Consider `Cc1nc2ccccc2c(=O)n1-c1ccc(NC(=O)c2ccccc2[N+](=O)[O-])cc1`, for which the activation is active: 67.9%.

For `O=C(CSc1nc(=O)[nH]c2c1CCC2)NCc1ccccc1Cl`, the activation was inactive: -5.74%.

For `Cc1ccc(NC(=O)Cn2c(=O)n(Cc3ccco3)c(=O)c3oc4ccccc4c32)cc1C`, the activation was inactive: -0.395%.

On to `COc1ccc(OC(=O)c2nc(SCc3ccccc3F)ncc2Cl)cc1`, for which the activation is inactive: -20%.

For `CCC(C)NC(=O)c1nn(-c2ccc(C)cc2)nc1CO` (centres undefined), the activation is inactive: 0.458%.

For the compound `Cc1cccc(CN2C(=O)c3ccccc3Sc3ccc(C(=O)NC4CCCCC4)cc32)c1`, the activation was inactive: -19.2%.

For the compound `O=C(Nc1ccc2nc(SCC(=O)N3CCOCC3)sc2c1)c1cccc(Br)c1`, the activation is inactive: 0.699%.

For the compound `CC(C)(C)c1ccc(C(=O)NCC(c2cccnc2)N2CCc3ccccc3C2)cc1` (centres undefined), the activation was inactive: -15%.

`Cc1cccc(CNC(=O)C2CCC(CNS(=O)(=O)c3ccc4c(c3)CCCC(=O)N4)CC2)c1` (centres undefined): the activation was inactive: 12.4%.

On to `COc1cc(NC(=O)CN2CCN(c3ccc(F)cc3)CC2)cc(OC)c1`, for which the activation was inactive: -19%.

For the compound `Cc1ccc2oc(-c3ccc(NC(=O)CCC(=O)O)cc3)nc2c1`, the activation was inactive: -21.1%.

Turning to `Cc1ccc(NC(=O)CCc2c(C)nc3c(-c4ccc(F)cc4)c(C)nn3c2C)cc1F`, the activation is inactive: -10.9%.

For `Cc1cc(C)c(Nc2ncnc3c2cnn3C)c(C)c1`, the activation is inactive: -2.73%.
